Reference: paper PMC4336329 (PLoS ONE, 2015)
Hit rate of the full screen: of about 310,000 compounds, about 2,200 (0.71%) showed an effect of 50% or more. Effects have a minus sign here. The list shows a part of the results.

What follows are molecules tested against human ether-à-go-go-related gene (hERG) potassium channel (human, UniProt Q12809) (assay: primary screen, population patch clamp on CHO cells stably expressing hERG).
human ether-à-go-go-related gene (hERG) potassium channel, sequence (Q12809 whole entry, looked up): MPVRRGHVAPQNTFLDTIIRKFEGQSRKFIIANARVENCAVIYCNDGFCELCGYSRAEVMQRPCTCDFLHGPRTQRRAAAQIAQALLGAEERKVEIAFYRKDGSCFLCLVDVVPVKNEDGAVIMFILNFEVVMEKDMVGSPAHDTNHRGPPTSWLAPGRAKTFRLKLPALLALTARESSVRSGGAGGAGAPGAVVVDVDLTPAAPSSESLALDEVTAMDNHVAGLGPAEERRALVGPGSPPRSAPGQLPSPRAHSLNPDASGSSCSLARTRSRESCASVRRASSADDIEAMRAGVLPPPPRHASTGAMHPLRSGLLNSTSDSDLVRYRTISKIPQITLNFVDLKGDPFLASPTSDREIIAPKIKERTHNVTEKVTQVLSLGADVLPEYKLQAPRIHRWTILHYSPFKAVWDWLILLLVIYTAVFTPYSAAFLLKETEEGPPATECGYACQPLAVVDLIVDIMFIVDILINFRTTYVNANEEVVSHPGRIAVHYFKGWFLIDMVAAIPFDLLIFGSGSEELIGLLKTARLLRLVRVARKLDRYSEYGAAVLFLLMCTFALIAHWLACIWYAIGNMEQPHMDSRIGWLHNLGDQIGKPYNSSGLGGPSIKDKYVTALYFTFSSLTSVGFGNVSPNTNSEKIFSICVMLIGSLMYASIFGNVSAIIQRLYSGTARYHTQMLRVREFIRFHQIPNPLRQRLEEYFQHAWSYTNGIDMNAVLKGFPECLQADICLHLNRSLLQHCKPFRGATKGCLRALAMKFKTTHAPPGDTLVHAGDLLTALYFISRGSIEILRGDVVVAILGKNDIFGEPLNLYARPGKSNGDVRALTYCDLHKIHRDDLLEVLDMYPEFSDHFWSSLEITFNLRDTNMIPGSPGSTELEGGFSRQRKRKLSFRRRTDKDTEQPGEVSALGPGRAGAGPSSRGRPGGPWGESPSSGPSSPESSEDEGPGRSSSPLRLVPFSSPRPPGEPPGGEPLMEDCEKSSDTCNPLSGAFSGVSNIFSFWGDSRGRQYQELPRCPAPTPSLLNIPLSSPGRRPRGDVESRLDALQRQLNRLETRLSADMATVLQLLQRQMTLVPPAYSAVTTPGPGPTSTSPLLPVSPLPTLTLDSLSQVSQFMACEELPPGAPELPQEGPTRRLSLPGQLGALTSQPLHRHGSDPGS

SMILES	hERG current change (%, negative = inhibition) at 1uM [%]
CC1CCCC(C)N1c1ccc(S(=O)(=O)N2CCOCC2)cc1Cl (stereo not shown)	12.9
CC(C)CNS(=O)(=O)c1cc(C(=O)OCC(=O)N(C)C2CCS(=O)(=O)C2)c(Cl)cc1Cl (stereo not shown)	3.94
COc1ccc(NC(=O)CN(C)CC(=O)Nc2cccc(S(=O)(=O)N(C)c3ccccc3)c2)cc1	-3.64
Br.CCOC(=O)CN1C2=NCCN2c2ccccc21	15.4
CCc1nnc(NC(=O)c2ccc3ccccc3n2)s1	11.4
CCC(c1nnnn1CCOC)N1CCN(Cc2ccccc2OC)CC1.Cl (stereo not shown)	8.37
CCN(C(=O)COC(=O)c1c(C)nn(-c2ccccc2)c1C)C1CCS(=O)(=O)C1 (stereo not shown)	14.3
Cc1ccnc2nc(C(=O)N3CCN(c4ccc(F)cc4)CC3)nn12	0.718
Cc1ccc(S(=O)(=O)NCc2ccncc2)cc1	0.0707
Cn1cc(/C=C2/SC(=O)N(CC(=O)Nc3ccc4c(c3)OCO4)C2=O)c2ccccc21	7
CC1Sc2ccc(C(=O)O)cc2NC1=O (stereo not shown)	27.9
COc1ccccc1OCC(=O)Nc1ccc2c(c1)n(C)c(=O)n2C	8.47
CCCCCCn1cc(C(=O)O)c(=O)c2cc(F)c(N3CCN(C(=O)OCC)CC3)cc21	15.1
Cc1ccc(C(=O)NCC(=O)OCC(=O)Nc2ccccc2[N+](=O)[O-])cc1	-18.3
CCOC(=O)c1cc(C)sc1NC(=O)CSc1nccn1C	-0.109
CCOc1ccc(CCNC(=O)c2c(C)noc2C)cc1OCC	-1.19
Cc1nc2ccccc2c(=O)n1-c1cc([N+](=O)[O-])cc([N+](=O)[O-])c1	12.7
COc1cc(NC(=O)Cn2ncc3c2-c2ccccc2OC3)cc(OC)c1OC	5.63
CCOC(=O)COc1c(OC)cc(Cl)cc1C1NC(=O)NC(C)=C1C(C)=O (stereo not shown)	4.58
COC(=O)c1cc2ccccn2c2c(C(=O)OC)c(C(=O)OC)cc1-2	11.4
CC(C(=O)N(C)C1CCS(=O)(=O)C1)N1C(=O)/C(=C/c2ccco2)SC1=S (stereo not shown)	4.79
O=C(Nc1nnc(-c2ccncc2)o1)C1CCCCC1	9.79

SMILES	hERG current change (%, negative = inhibition) at 1uM [%]
CCCC(=O)Nc1c(C(=O)OCC)[nH]c2ccccc12	14.9
CCOC(=O)c1c(NC(=O)N/N=C/c2ccc(O)c(OC)c2)sc(C(C)=O)c1C	9.99
CCC(C)Sc1nc(O)c(Cc2ccccc2)c(=O)[nH]1 (stereo not shown)	8.96
CN1CCNC(=O)C1CC(=O)NCC1(c2ccccc2)CCCCC1 (stereo not shown)	6.08
CCCCNc1nc2ccccc2n1CC(=O)Nc1c(C)cccc1CC	-2.16
Clc1ccccc1OCc1nc(-c2ccccn2)no1	7.12
Cc1ccc(Nc2nc(N)nc(CSc3nc4ccccc4s3)n2)cc1	12.8
CCOC(=O)c1cccc(NC(=O)CCn2nc(C)c(S(=O)(=O)N3CCCCC3)c2C)c1	2.64
O=C(N/N=C/c1coc2ccc(Cl)cc2c1=O)c1ccncc1	16.3
O=S(=O)(c1ccc(Br)cc1)N1CCN=C1SCc1cccnc1	-3.7
CCCNS(=O)(=O)c1ccc(CCC(=O)NCc2ccc3c(c2)OCO3)cc1	-16.8
O=S(=O)(c1cc(Cl)ccc1Cl)N1CCNCC1	12
O=C(NC1(C(F)(F)F)C(=O)Nc2c1c(=O)[nH]c(=O)n2Cc1ccccc1)c1ccco1 (stereo not shown)	0.54
COc1cccc(/C=C2\SC(=S)N(CCCC(=O)N3CCCCC3CCO)C2=O)c1 (stereo not shown)	12.8
CCCOC1CCCN(C(=O)c2ccc(OC3CCN(Cc4ccccn4)CC3)cc2)C1 (stereo not shown)	10.5
COc1ccccc1CN1CC(C(=O)NCCc2ccc(Cl)cc2)CC1=O (stereo not shown)	10.8
CCN1CCN(CC2CC3C=CC2C3)CC1 (stereo not shown)	17.5
CC(C)c1ccc(NC(=O)C2CCCN(S(=O)(=O)c3cnc[nH]3)C2)cc1 (stereo not shown)	11.9
CCOC(=O)c1[nH]c(COC(=O)CCCOc2ccccc2)c(C(=O)OCC)c1C	6.2
O=C(C1CC1)N1c2ccccc2Sc2ccccc21	10.6
N#C/C(=C\c1c(N2CCN(Cc3ccccc3)CC2)nc2ccccn2c1=O)S(=O)(=O)c1ccccc1	9.53
C/C(=N\NC(=O)CSc1nc(C)cc(C)n1)c1ccc2c(c1)OCCO2	18.7

SMILES	hERG current change (%, negative = inhibition) at 1uM [%]
N/C(=N\OC(=O)Cc1ccc([N+](=O)[O-])cc1)c1cccc(Br)c1	9.26
CN1CCN(c2ccc(NC(=O)COc3ccccc3Cl)cc2)CC1	-8.01
O=C(CNC(=O)c1ccc(Cl)cc1)N/N=C/C=C/c1ccccc1	9.65
CCc1cc(C(=O)c2ccccc2OC)c(N)s1	9.14
CCOC(=O)c1ccc(NC(=S)NCCc2ccccc2)cc1	16.3
COc1ccc(OCc2nc3ccccc3n2C(C)C)cc1	8.75
Cc1ccc(C)c(S(=O)(=O)NCCOC(=O)Nc2sc(=S)n(C)c2C)c1	2.29
COc1cccc(/C(O)=C2/C(=O)C(=O)N(Cc3ccco3)C2c2ccncc2)c1 (stereo not shown)	13.8
O=C(Nc1ccc(S(=O)(=O)N2CCOCC2)cc1)c1ccc2c(c1)OCO2	10.5
CC(CN1CCOCC1)OC(=O)c1ccccc1Cl.Cl (stereo not shown)	16.7
Cc1cccc(C)c1NC(=O)Cn1c(=O)n(CCCC(=O)NC2CCN(Cc3ccccc3)CC2)c(=O)c2ccccc21	-16
CC1CCN(C(=O)c2ccc(NS(=O)(=O)c3cccc4cccnc34)cc2)CC1	3.61
COc1ccc2c(c1)CCc1cc(C(=O)O)sc1-2	-3.57
CCOc1ccc(N(CC(=O)NC2CCCC2)C(=O)CCC(=O)Nc2nccs2)cc1	8.7
CC(C)(C)SCCNC(=O)c1ccc(NS(C)(=O)=O)cc1	-0.0459
O=C(O)CCC(=O)NNC(=O)CCCOc1ccc(Cl)cc1Cl	0.677
CCOC(=O)c1c(NC(=O)C2C3C=CC(C3)C2C(=O)O)sc2c1CCC(CC)C2 (stereo not shown)	14
CCOc1ccc(NC(=O)N2CCC(C(=O)c3ccc(F)cc3)CC2)cc1	5.78
CN(CC(=O)Nc1ccc(F)cc1)CC(=O)N1CCCCC1	1.14
Cc1ccccc1OCc1nc2ccccc2c(=O)n1N	7.23
CO/N=C(\C(=O)N[C@@H]1C(=O)N2C(C(=O)[O-])=C(COC(C)=O)CS[C@H]12)c1csc(N)n1.[Na+]	17.4
Cc1cc(C)nc(SCC(=O)Nc2ccc(S(=O)(=O)Nc3nccs3)cc2)n1	4.86

SMILES	hERG current change (%, negative = inhibition) at 1uM [%]
O=C(COC(=O)c1ccc2c(c1)S(=O)(=O)N=C1CCCCCN12)NCCc1ccc(F)cc1	8.96
CN(C)CCn1cnc2c1c(=O)n(C)c(=O)n2C.Cl	13.1
C(=N\Nc1nc(N2CCCCCC2)nc(N2CCCCCC2)n1)/c1ccccc1	6.09
Nc1nc(-c2ccc(Cl)cc2)nn1C(=O)c1cccnc1	-3.36
Cc1ccc(S(=O)(=O)Nc2ccc(N3CCOCC3)cc2)cc1	19
Cc1ccc(Cc2c(C)nc3nc(SCC(=O)NCCCN4CCCCCC4)nn3c2C)cc1	-15
CC1(C)CC(=O)c2sc(NS(=O)(=O)c3ccc(Cl)cc3)nc2C1	16.1
CCc1ccc(NC(=O)C2CCCN2S(=O)(=O)c2ccc3c(c2)C(C)(C)C(=O)N3C)cc1 (stereo not shown)	-14.6
O=C(CSc1nnc(-c2cccnc2)o1)OC1CCCCC1	10.6
CCCC(=O)NC(c1ccccc1OC)c1ccc2cccnc2c1O (stereo not shown)	4.77
Fc1ccc(CN2CCCCCC2)c(F)c1	6.75
COc1ccccc1NC(=O)c1cc([N+](=O)[O-])ccc1NCCN1C(=O)CCC1=O	15.9
O=C1N/C(=C/c2cccs2)C(=O)N1Cc1ccc(Br)cc1	1.96
O=C(NCCCCc1ccccc1)c1ccccc1Br	8.13
CCOC(=O)C1=C(COC(=O)CSc2ccc(Br)cc2)NC(=O)NC1C (stereo not shown)	18.7
Cc1c(NC(=O)C23CC4CC(CC(C)(C4)C2)C3)c(=O)n(-c2ccccc2)n1C	13.5
C=CCNC(=O)c1ccc(NC(=O)CC2SC(N3CCCC3)=NC2=O)cc1 (stereo not shown)	10.9
COc1ccccc1CO/N=C/NC(=O)c1c(OC)ccnc1Oc1ccc(F)cc1	-1.73
CCN(CC)S(=O)(=O)c1ccc2nnn(O)c2c1	9.18
C=CCn1c(SCC(=O)Nc2ccccc2F)nnc1C(C)NC(=O)c1ccccc1F (stereo not shown)	6.76
O=S(=O)(c1ccc(Cl)cc1)N1CCN(Cc2c[nH]c3ccccc23)CC1	2.9
COc1ccc(-c2nc3ccccn3c2NCc2ccc3c(c2)OCO3)cc1	-25.8
